Like-named read-outs stand apart in the source and are kept apart here. Values belong to the compound of their own block, whether it stands above or below them.
Key:
[1] = ref Chen 2011; cited from earlier work
[2] = tested on: THLE-Null and THLE-3A4 cells; details: In vitro Assay; ref Gustafsson 2014; cited from earlier work
[3] = tested on: HepG2 cells; details: Structural based (HCI), ref Persson et al. 2013; cited from earlier work
[4] = cited from earlier work
[5] = tested on: human hepatocytes; details: cited from earlier work
[6] = plasma free fraction; cited from earlier work
[7] = tested on: hLiMTs; details: ATP, IC50 < 100 × Cmax.tot, ref Proctor et al. 2017; cited from earlier work
[8] = tested on: HepG2 cells; details: Structural based (HCI), ref O'Brien et al. 2006; cited from earlier work
[9] = tested on: HepaRG spheroids; assay: Combined HCI (HCS) and cellular ATP 3D assay in HepaRG spheroids
[10] = tested on: HepG2 C3A spheroid, BSEP, Glu/Gal in HepG2 cells, bioactivation; details: cited from earlier work
[11] = tested on: PHH spheroids; details: cited from earlier work; for hLiMTs ATP <20 x Cmax: In vitro Assay, ref Vorrink 2018
[12] = cited from earlier work; remark: listed apart in the source
[13] = tested on: isolated mouse liver mitochondria; details: In vitro Assay; ref Porceddu 2012; cited from earlier work
[14] = tested on: hLiMTs; assay: Combined HCI (HCS) and cellular ATP 3D assay in hLiMTs
[15] = tested on: HepG2 cells; details: Structural based (HCI), ref Tolosa et al. 2012; cited from earlier work
[16] = read-out: Human plasma Cmax; total plasma Cmax.tot, median of 9 literature references; cited from earlier work
[17] = tested on: PHH; details: 2D PHH, ATP, IC50 < 100 × Cmax.tot; ref Proctor et al. 2017; cited from earlier work
[18] = tested on: primary human hepatocytes, NIH3T3 fibroblasts, BSEP, CYP3A4; details: cited from earlier work
[19] = Plasma free fraction (fu) and unbound Cmax (Cmax,u); type: in vitro ADME, human; details: unbound plasma Cmax
[20] = tested on: HepG2 cells, primary human hepatocytes; details: In vitro Assay; ref Garside 2014; cited from earlier work
[21] = tested on: THLE or HepG2 cells, isolated mitochondria, BSEP; details: Modeled in vitro assays (cytotoxicity, mitochondrial dysfunction, BSEP); ref Aleo et al. 2019; cited from earlier work
[22] = tested on: Upcyte human hepatocytes; details: In vitro Assay; ref Tolosa 2019; cited from earlier work
[23] = tested on: rBsep; details: In vitro Assay; ref Dawson 2012; cited from earlier work
[24] = Microtissue model structural based (HCI), combined HCS and ATP, MEC < 25 × Cmax.tot cut-off
[25] = In vitro Assay, ref Schadt 2015

HepaRG <25x Avg Cmax ATP ([9]; HepaRG, ATP endpoint, cut-off <25x Avg Cmax): +ve | HepaRG <100x Avg Cmaxu ATP ([9]; HepaRG, ATP endpoint, cut-off <100x Avg Cmaxu): -ve | HepaRG <25x Avg Cmax HCS ([9]; HepaRG, HCS endpoints, cut-off <25x Avg Cmax): +ve | HepaRG <100x Avg Cmaxu HCS ([9]; HepaRG, HCS endpoints, cut-off <100x Avg Cmaxu): +ve (<100x Avg Cmaxu) | HepaRG <25x Avg Cmax All ([9]; HepaRG, all endpoints (ATP and HCS), cut-off <25x Avg Cmax): +ve | HepaRG Cmax max All ([9]; HepaRG, all endpoints, Cmax max used): +ve | HepaRG Cmax min All ([9]; HepaRG, all endpoints, Cmax min used): +ve | HepaRG <100x Avg Cmaxu All ([9]; HepaRG, all endpoints, cut-off <100x Avg Cmaxu): +ve (<100x Avg Cmaxu) | hLiMTs <25x Avg Cmax ATP ([14]; hLiMTs, ATP endpoint, cut-off <25x Avg Cmax): +ve | hLiMTs <100x Avg Cmaxu ATP ([14]; hLiMTs, ATP endpoint, cut-off <100x Avg Cmaxu): +ve (<100x Avg Cmaxu) | hLiMTs <25x Avg Cmax HCS ([14]; hLiMTs, HCS endpoints, cut-off <25x Avg Cmax): +ve | hLiMTs <100x Avg Cmaxu HCS ([14]; hLiMTs, HCS endpoints, cut-off <100x Avg Cmaxu): +ve (<100x Avg Cmaxu) | hLiMTs <25x Avg Cmax All ([14]; hLiMTs, all endpoints (ATP and HCS), cut-off <25x Avg Cmax): +ve | hLiMTs Cmax max All ([14]; hLiMTs, all endpoints, Cmax max used): +ve | hLiMTs Cmax min All ([14]; hLiMTs, all endpoints, Cmax min used): +ve | hLiMTs <100x Avg Cmaxu All ([14]; hLiMTs, all endpoints, cut-off <100x Avg Cmaxu): +ve (<100x Avg Cmaxu) | Human plasma Cmax,u [19]: 0.089 µM
SMILES: CCCCc1oc2ccccc2c1C(=O)c1cc(I)c(OCCN(CC)CC)c(I)c1 [amiodarone, reference compound]
DILI Score (FDA) (1-8) [1]: 8 | THLE-Null/3A4 [2]: +VE | DILI in vitro assay prediction, Persson (2013) [3]: +VE | Assigned DILI category ([4]; Chen et al. 2016 or literature alignment, ref Chen et al. 2016): 3 | In vivo DILI ([4]; […]): +VE | In vivo DILI ([4]; ref Garside 2014): +VE | In vivo DILI ([4]; ref Gustafsson 2014): +VE | In vivo DILI ([4]; ref O'Brien 2006): +VE | In vivo DILI ([4]; ref Persson 2013): +VE | In vivo DILI ([4]; ref Porceddu 2012): +VE | In vivo DILI ([4]; ref Proctor 2017): +VE | In vivo DILI ([4]; ref Schadt 2015): +VE | In vivo DILI ([4]; ref Tolosa 2012): +VE | In vivo DILI ([4]; ref Tolosa 2019): +VE | In vivo DILI ([4]; ref Vorrink 2018): +VE | In vivo DILI ([4]; ref Williams 2019): +VE | In vivo DILI ([4]; ref Xu 2008): +VE | Structural based (HCI) ([5]; In vitro Assay, ref Xu 2008): +VE | DILI in vitro assay prediction, Xu (2008) ([5]; Structural based (HCI), human hepatocytes, ref Xu et al. 2008): +VE | fu [6]: 0.020 | hLiMTs/100xCmax, Proctor (2017) [7]: +VE (IC50 < 100 × Cmax.tot) | DILI in vitro assay prediction, O'Brien (2006) [8]: +VE (lowest HCI endpoint IC50 (or in the absence of dose–response < 100 µM) < 30 × total human plasma exposure levels (Cmax.tot)) | DILI prediction HepaRG spheroids (HCS-MEC) [9, 24]: +VE (MEC < 25 × Cmax.tot cut-off) | Bayesian Machine Learning DILI prediction, Williams (2019) ([10]; Bayesian modeling, ref Williams et al. 2019): +VE | Bayesian Machine Learning ([10]; In vitro Assay, ref Williams 2019): +VE | hLiMTs ATP <20 x Cmax [11]: +VE (IC20 < 20 × Cmax.tot cut-off) | DILI in vitro assay prediction, Vorrink (2018) ([11]; PHH spheroids, ATP, 14 days, IC20 < 20 × Cmax.tot, ref Vorrink et al. 2018): +VE (IC20 < 20 × Cmax.tot cut-off) | DILI severity category (Chen et al. [2016]) ([12]; LTKB DILIrank category, ref Chen et al. 2016): Most | DILI severity category (Chen 2016) ([12]; human DILI classification, LTKB DILIrank, ref Chen et al. 2016): Most | DILI severity category ([12]; human DILI severity, ref Chen et al.): Most | DILI +VE (5-8), DILI -VE (-4) ([12]; ref Chen 2016): +VE | DILI severity category ([12]; ref Chen 2016): vMost-DILI-Concern | in vitro data EC2<=1x Cmax [13]: +VE | DILI prediction hLiMTs (HCS-MEC) [14, 24]: +VE (MEC < 25 × Cmax.tot cut-off) | DILI in vitro assay prediction, Tolosa (2012) [15]: +VE | Cmax [16]: 4.45 µM | PHH/100xCmax, Proctor (2017) [17]: +VE (IC50 < 100 × Cmax.tot) | DILI in vitro assay prediction, Schadt (2015) ([18]; BSEP & Metabolism based, ref Schadt et al. 2015): +VE | Cellular toxicity (3T3 cells) [18, 25]: +VE | Combined Assay [18, 25]: +VE | GSH adduct HML [18, 25]: -VE | Hepatocyte cellular toxicity [18, 25]: -VE | MitoTox 3T3 [18, 25]: -VE | TDI CYP3A4 [18, 25]: -VE | hBSEP inhibition [18, 25]: -VE | Cluster 1-6 +VE Assay [20]: +VE | Rule of Two hybrid HRM Score ≥3, Aleo (2019) [21]: +VE (Rule of Two hybrid HRM Score ≥3) | Rule of Two hybrid HRM Score ≥8, Aleo (2019) [21]: +VE (Rule of Two hybrid HRM Score ≥8) | Upcytes multi donor assay 14day data [22]: +VE

SMILES: NS(=O)(=O)c1cc(C(=O)O)c(NCc2ccco2)cc1Cl [furosemide, reference compound]
Inhibition of rBsep cutoff<1& cmax u>.2 [23]: -VE | Inhibition of rBsep cutoff<3 [23]: -VE | hLiMTs ATP <20 x Cmax [11]: -VE

Reference: paper PMC7395068, “The evolution of strategies to minimise the risk of human drug-induced liver injury (DILI) in drug discovery and development” (Archives of Toxicology, 2020)
